Here are results for 69 molecules from PubChem BioAssay AID488969 (Vanderbilt High Throughput Screening Facility, 2010).

Over roughly 110,000 compounds, “z-score” has its median near -0.1; the highest 2% begin near 2. The list shows a part of the results. The source made the active and inactive calls.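 How the source made its calls: active means z-score in the third read window above 3 or below -3; inactive means the rest.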

This test deals with Metabotropic glutamate receptor 8 (Rattus norvegicus) (UniProt P70579). As to the kind of experiment: mGluR8 Gi/Go-coupled signaling modulation – cell-based, rat, thallium flux, HTS, primary screen (AID 488969). The note with it: HEK293 rat mGluR8, GIRK (G protein-gated inwardly rectifying potassium channel) thallium flux, FluoZin2; at 10 µM; stronger effect = higher value; submaximal glutamate (EC20) added with thallium.
UniProt P70579, sequence (P70579 whole entry, looked up): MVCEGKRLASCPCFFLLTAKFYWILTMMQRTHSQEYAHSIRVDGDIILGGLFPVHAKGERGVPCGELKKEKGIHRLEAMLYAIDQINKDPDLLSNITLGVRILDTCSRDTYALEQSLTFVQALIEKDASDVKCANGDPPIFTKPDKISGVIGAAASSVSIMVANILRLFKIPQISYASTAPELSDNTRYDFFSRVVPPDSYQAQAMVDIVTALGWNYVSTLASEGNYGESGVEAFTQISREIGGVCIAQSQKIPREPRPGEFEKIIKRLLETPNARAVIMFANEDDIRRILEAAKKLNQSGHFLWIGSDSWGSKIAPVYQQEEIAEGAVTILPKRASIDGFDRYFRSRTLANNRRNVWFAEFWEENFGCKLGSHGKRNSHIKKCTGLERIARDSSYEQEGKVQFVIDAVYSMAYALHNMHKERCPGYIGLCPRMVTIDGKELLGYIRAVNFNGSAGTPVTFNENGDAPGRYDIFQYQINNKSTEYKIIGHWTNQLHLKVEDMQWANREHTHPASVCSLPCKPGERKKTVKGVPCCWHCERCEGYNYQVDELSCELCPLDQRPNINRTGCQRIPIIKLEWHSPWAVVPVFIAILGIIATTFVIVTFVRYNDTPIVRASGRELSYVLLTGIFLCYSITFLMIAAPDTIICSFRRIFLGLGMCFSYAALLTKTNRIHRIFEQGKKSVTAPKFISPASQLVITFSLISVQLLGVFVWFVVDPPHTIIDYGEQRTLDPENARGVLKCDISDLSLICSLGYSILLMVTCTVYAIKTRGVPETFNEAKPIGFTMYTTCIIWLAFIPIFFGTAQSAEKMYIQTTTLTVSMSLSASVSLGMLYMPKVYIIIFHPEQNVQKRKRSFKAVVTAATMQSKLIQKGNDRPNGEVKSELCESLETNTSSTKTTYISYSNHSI
`COc1ccccc1C(=O)Nc1ccc(OCc2nnc3c4ccccc4c(C)nn23)cc1` registered a z-score of -0.0364. In the case of `COc1ccc(C2NC(=S)NC(C)=C2C(=O)c2ccccc2)cc1OC` (centres undefined) it was -0.00465; in that of `COc1ccc(C(C(=O)Nc2ccc(F)cc2)N(C(=O)Cn2nnc3ccccc32)C2CC2)cc1` (centres undefined), -0.197; in that of `CC(C)Oc1ccc(C2CC(=O)N(c3cccc(C(=O)O)c3)C2=O)cc1` (centres undefined), 0.682. `Fc1ccccc1OCCCCCCN1CCCC1` yielded a z-score of -0.000634. In the case of `Cc1cccc(-n2c(Cc3cc(=O)[nH]c(=O)[nH]3)nnc2SCC(=O)NCc2ccco2)c1` it was -0.581. As for `COc1ccc(/C=C(/C#N)C(=O)Nc2ccc(C)cc2C)cc1C(=O)O`, the figure is 0.129. Regarding `CCOc1ccc(NC(=O)CSc2nnc(C34CC5CC(CC(C5)C3)C4)n2C)cc1`, the z-score is -0.136. As for `COc1ccc(-c2csc(NC(=O)c3cccc(S(=O)(=O)N4CCN(C)CC4)c3)n2)cc1`, the figure is 0.203; as for `Cn1c(=O)cc(SCC(=O)NCCC2=CCCCC2)c2ccc(Cl)cc21`, -0.0516. In the case of `CCOC(=O)CSC1=NC(=O)CS1` it was 0.159; in that of `c1ccc(CCNc2ncnc3scc(C4COc5ccccc5O4)c23)cc1` (centres undefined), -0.657. As for `CCOc1ccc(C(=O)c2ccncc2)cc1`, the figure is -0.477; as for `O=C1C2C3C=CC(C3)C2C(=O)N1c1n[nH]c(CCc2ccccc2)n1` (centres undefined), 0.0315; as for `Cc1c(NS(=O)(=O)c2cccc(C(=O)NCc3ccc(Cl)cc3)c2)c(=O)n(-c2ccccc2)n1C`, -0.838.

On to `CC(=O)Oc1ccc(/C=c2\sc3ncnn3c2=O)cc1`, for which the z-score turned out to be 0.968. For `CCOc1ccc(NC(=O)COC(=O)c2ccc3c(c2)C(=O)N(CCc2ccccc2)C3=O)cc1`, the z-score worked out at 0.708. As for `COc1cccc(Nc2cc(C)nc3ccccc23)c1`, the figure is 2.53. For `N#CC12CCCCC1CC1CCCCC1(C#N)N2Cc1cccnc1` (centres undefined), the z-score was found to be 0.401. As for `Cn1nnnc1SCC(=O)Nc1ccccc1Cc1ccccc1`, the figure is 0.0715; as for `Cc1cc(C)n2c(SCc3ccccc3Cl)nnc2n1`, -0.528. In the case of `O=C(O)C1C2C=CC(C2)C1C(=O)N1CCN(CCO)CC1` (centres undefined) it was -0.388. As for `CSc1sc(C)cc1C1C(C#N)=C(N)N(c2cccnc2)C2=C1C(=O)CCC2` (centres undefined), the figure is -0.583.

In the case of `Cc1ccc2nsnc2c1NC(=O)c1ccc(-c2cc(Cl)ccc2Cl)o1`, the z-score is -0.432. As for `COCCCn1c(SCC(=O)N(C)C)nnc1-c1ccccc1`, the figure is -0.348. `N#Cc1cccnc1Nc1cccc(Cl)c1` came in with a z-score of -0.154.

Consider `Clc1ccc(OCc2cn3cccnc3n2)c2ncccc12`, for which the z-score was determined as 0.932. As for `Cc1ccc(C)c(NC2=NC3(CCCCC3)N=C(N)N2)c1`, the figure is -0.297; as for `COc1cccc(NC(=O)Cc2nnc(SCCOc3ccccc3)n2C)c1`, -0.161; as for `C/C(O)=C\c1nc2ccccc2oc1=O`, 0.253. As for `Cc1cc(C)c(S(=O)(=O)N2CCCOC2CNC(=O)C(=O)NCCc2c[nH]c3ccccc23)c(C)c1` (centres undefined), the figure is 0.117; as for `Cc1cc(C(=O)N2CCN(C/C=C/c3ccccc3)CC2)no1`, 0.57; as for `COc1ccc(Cc2c(Cl)ncnc2Cl)cc1`, 0.301. As for `COc1ccc(CCC(=O)Nc2nc3ccccc3[nH]2)cc1OC`, the figure is 0.784; as for `CSc1cccc(NC(=O)CN(Cc2ccc(Cl)cc2)S(C)(=O)=O)c1`, 1.13. Molecule `COC(=O)c1cccc(NC(=O)CCNC(=O)c2ccc([N+](=O)[O-])cc2)c1` yielded a z-score of -0.0412. As to `COc1cc(OC)cc(C2C(C#N)=C(N)Oc3n[nH]c(-c4cccnc4)c32)c1` (centres undefined), the z-score was -1.51. As for `CCOC(=O)N1CCC(NC(=O)C(Cc2ccccc2)NC(=O)c2ccco2)CC1` (centres undefined), the figure is 0.125; as for `Cc1nc2c(-c3ccc(F)cc3)c(C)nn2c(C)c1CCC(=O)NC(C)CCc1ccco1` (centres undefined), -0.796; as for `O=C(O)CCCCCNC(=O)c1ccccc1`, -1.23.

`COc1ccc(N(C(=O)c2ccc(Cl)cc2)C2=CC3CCC(C2)N3C)cc1` (centres undefined) displayed a z-score of 1.47.

`O=C(Nc1ccc2nc(-c3ccco3)[nH]c2c1)c1ccco1`: the z-score is 0.934. As for `CCOc1ccc(C(=S)NC2CCCCC2)cc1`, the figure is -0.292. For the molecule `O=C(COC(=O)C1CC1)Nc1ccc(OC(F)F)cc1`, the z-score was -0.197. As for `CCNC(=S)Nc1ccc(C)c(Cl)c1`, the figure is -0.148. In the case of `COc1cccc(/C=N/NC(=O)C(=O)NCc2ccco2)c1OC` it was -0.14. For the molecule `Cc1cc(C)n2ncc(C(=O)NCc3ccc(Cl)cc3)c2n1`, the z-score is -0.391. Molecule `Cc1ccc(NC(=O)CNc2ccc(OC(C)C)cc2)c(C)c1` had a z-score of -0.129.

Molecule `Cc1c(C(=O)N2CCN(c3ccccc3F)CC2)sc2nc(-c3ccccc3)cn12` showed a z-score of 0.376.

The molecule `COc1ccc(N2CCN(C(=O)CN(c3ccccc3)S(=O)(=O)c3ccc(OC)cc3)CC2)cc1` displayed a z-score of -0.0102. In turn, `COc1ccc(-c2csc(Nc3cccnc3)n2)cc1OC` returned a z-score of -0.0895.

As to `COc1ccc(Nc2nc(C)cc(C)c2C#N)cc1OC`, the z-score is active: 6.74. `C(=N\N(c1ccccc1)c1ccccc1)/c1ccc(N2CCOCC2)s1` registered a z-score of -0.146. Consider `CS(=O)(=O)N1N=C(c2ccccc2)CC1c1cccs1` (centres undefined), for which the z-score is -0.136. In the case of `COCCCn1[nH]c2c3c(ccc2c1=O)C(=O)c1ccccc1C3=O` it was -0.214. The molecule `CCC(CC)C(=O)c1c[nH]c(C(=O)NCCCn2ccnc2)c1` yielded a z-score of 0.112. In the case of `CN(C)S(=O)(=O)c1ccc(NC(=O)N2CCN(c3cccc(C(F)(F)F)c3)CC2)cc1` it was -0.474; in that of `CC1CN(S(=O)(=O)c2ccc(NC(=O)c3ccco3)cc2)CC(C)O1` (centres undefined), -0.255. In the case of `Cn1c(=O)c2c(nc(CN3CCN(C(=O)c4ccco4)CC3)n2Cc2ccc(Cl)cc2)n(C)c1=O` it was -0.465; in that of `COc1cnc(-c2ccccn2)nc1Sc1ccccc1Cl`, -0.743. In the case of `CC(=O)COc1ccccc1OC(=O)c1ccco1` it was -0.243. Take `Cc1cc(C)n(-c2nc3c(c(=O)[nH]c(=O)n3C)n2CC(O)COc2ccc(Cl)cc2Cl)n1` (centres undefined): the z-score was -0.148. As for `C=C(C)c1cccc(C(C)(C)NC(=O)N2CCN(c3ccc(OC)cc3)CC2)c1`, the figure is -0.0296; as for `O=C(NC(=S)N(Cc1ccccc1)Cc1ccccc1)c1ccccc1F`, -1.15; as for `CCOC(=O)c1sc(N(Cc2ccccc2)C(=O)CN2C(=O)CN(C)C2=O)nc1C`, 0.75.

`CC(C)CN(CC(C)C)C1=N/C(=C\c2ccco2)C(=O)N1c1ccccc1` had a z-score of 0.265.

Turning to `C=CCOc1cccc(C2/C(=C(/O)c3ccc(Cl)cc3)C(=O)C(=O)N2CCN2CCOCC2)c1` (centres undefined), the z-score is -0.349. Molecule `Cc1ccc(-n2nc(C)c3c2OC(N)=C(C#N)C3c2ccc(C)o2)cc1` (centres undefined) registered a z-score of 0.761.

The molecule `CCCCc1ccc(-c2nc(NC(=O)C3C4CCC(O4)C3C(=O)O)sc2C)cc1` (centres undefined) registered a z-score of -0.0109.
